# This is one part of the list. At the low end of the ranking, values are background and their order means little.
# Target: MAX:MAX (p21) (UniProt P61244-2)
# Test: protein-binding microarray (anti-MAX antibody)
# Details: PBM: 15 mM Tris-HCl pH 7.5, 100 mM KCl, 0.075% NP40, 7.5 mM beta-mercaptoethanol, 375 ng/ul BSA, 8 ng/ul poly(dA-dT):(dA-dT), 550 ng complex, 60 min, room …; high values mean tight binding; double strand, one strand shown; sequences stand for … in CCGGC…TTAATAGCTAAGATTACTATATCGACG
row,Sequence,binding signal (log2 normalized fluorescence)
1,CGACCTGTGGTA,0.668
2,TGATGAAACGTA,-0.297
3,TGACAACGCGTA,0.927
4,TGAGTTTCTGTA,-1.21
5,TCACCCATGGTA,2.35
6,TGAGTAGCAGTA,-1.21
7,TGAAGTGTAGTA,-0.529
8,TGACTTACCGTA,-0.339
9,TGACCCTGAGTA,-0.307
10,TGAACGTGAGTA,1.43
11,TGAGGCGGTGTA,-0.63
12,TGACGCTTTGTA,-0.559
13,TGAATATCGGTA,-1.05
14,TGATTCAACGTA,-0.44
15,TGATCGCATGTA,1.97
16,TGAGGCGGCGTA,-0.641
17,TGAGTCCGAGTA,-1.17
18,CTCATCGCGCCT,0.579
19,TGAATAGAAGTA,-1.13
20,TGACTCGTGCTA,3.13
21,TGACGTGTAGTA,0.928
22,TGAATGTGTGTA,1.07
23,TGATTAGTCGTA,-1.33
24,TGAGCACTGGTA,-0.181
25,TGAGCAGTTGTA,-0.641

row,Sequence,binding signal (log2 normalized fluorescence)
1,TGACGGAAGGTA,-0.707
2,TGACACGTGTTT,3.34
3,TGACGAAACGTA,-0.518
4,TGAGGTTGCGTA,-0.504
5,TGAGTTTCAGTA,-1.29
6,TGATCTGACGTA,-0.861
7,TGAAGCGCAGTA,-0.514
8,TGTCGCGTGGTA,3.24
9,TGATTGAAGGTA,-0.899
10,TGATATCAAGTA,-0.796
11,TGACAGGTGGTT,2.77
12,TGACCCATGGTT,2
13,AGACACTTTGTA,0.324
14,TGAGATCAAGTA,-1.05
15,TGAACATGGGTA,1.86
16,TGATAGCCTGTA,-0.436
17,TGAAGGATGGTA,-0.0298
18,TGAGGACAGGTA,-0.599
19,TGATGTTGCGTA,0.203
20,TGATCTCATGTA,1.36
21,TGATAAGAAGTA,-1.09
22,TGATTTGAAGTA,-0.941
23,TGACCGATGGTA,-0.142
24,TGACTCGGTGTA,-0.356
25,TGACAGTACGTA,-0.101

row,Sequence,binding signal (log2 normalized fluorescence)
1,TGAATTTTAGTA,-1.2
2,TGAGGCGTGGCA,2.67
3,TGACTCACAGTA,-0.188
4,TGAGCGAGTGTA,0.00325
5,TGATAGGGGGTA,1.2
6,TTACGCGTGGTA,3.27
7,TGACAAGTGGTA,0.53
8,ACGCACGTGGTA,3.29
9,TGAGCGTGTGTA,2.08
10,TGACATGAGGTA,2.52
11,TGAGTTGATGTA,-0.409
12,TGAGGGCGGGTA,0.319
13,TGATTCAGTGTA,-0.789
14,TGAACCGAGGTA,-0.398
15,TCGTCCCCTGAC,-0.73
16,TGACACCTCGTA,0.482
17,GGGCACGTGGTA,3.35
18,TGAATTACTGTA,-0.662
19,TGAAAGTACGTA,-0.583
20,TGAACCAGTGTA,-0.309
21,TGTGTCGTGGTA,0.865
22,TGAGCTTGTGTA,-0.232
23,TGACTGCGGGTA,-0.115
24,TGAGTTCAGGTA,-0.866
25,TCATAAGTGGTA,0.241

row,Sequence,binding signal (log2 normalized fluorescence)
1,TGATGAATCGTA,-0.397
2,TGATGCTGGGTA,-0.147
3,TGACGGTAGGTA,-0.487
4,TGAACGATTGTA,-0.635
5,TGATCTGATGTA,-0.514
6,TGACTTGCCGTA,-0.0827
7,TGAGCTTCTGTA,-0.668
8,TGACGCGTGCCA,3.24
9,TGATGGTCCGTA,0.325
10,TGAGTAGGCGTA,-1.32
11,TGAACCGGGGTA,-0.0822
12,TGAGCGAAGGTA,-0.93
13,TGACACGTGTAG,3.17
14,TGACACGTGCTA,3.17
15,TGATGGGAAGTA,-0.343
16,TCACACGTGGTT,3.32
17,TGAAGACCAGTA,-0.661
18,GCCCACGTGGTA,3.43
19,TGAATCTCCGTA,-1.18
20,TGAATACTAGTA,-0.595
21,TGACACGTGATG,3.13
22,TGATCCCAAGTA,-0.758
23,TGAATAGGTGTA,-0.568
24,TGAGCCCTCGTA,-0.825
25,TGACCACTTGTA,0.251

row,Sequence,binding signal (log2 normalized fluorescence)
1,TGACTTCGGGTA,-0.884
2,TTACAAGTGTTA,0.37
3,TGAAATACAGTA,-0.598
4,TCACACGTCGTA,2.63
5,TGAAAACACGTA,0.876
6,TGAAAGCTAGTA,-1.23
7,TGAAAAATGGTA,-0.502
8,TGACTCTCGGTA,-0.779
9,TGAAAACGCGTA,0.5
10,TGATGCATCGTA,0.17
11,TGAGAGGTGGTA,-0.21
12,TGACACGTCATG,1.8
13,TGAAAAGACGTA,-0.657
14,TGATTATGGGTA,-0.773
15,TGACTTACTGTA,-0.388
16,TGAGTTTTTGTA,-1.36
17,TGACTCGCAGTA,-0.3
18,TGAGGTAGGGTA,-0.447
19,TGAATGCTAGTA,-0.0965
20,CCTAATTATCAA,-1.2
21,TGAAAGAAGGTA,-0.725
22,TGAATAGCCGTA,-1.21
23,TGAGGGTGCGTA,0.326
24,TCCTATTCGCGA,-1.45
25,TGGTTCGTGGTA,0.191

row,Sequence,binding signal (log2 normalized fluorescence)
1,TGAATACGTGTA,0.346
2,TGAACTTGAGTA,-0.584
3,TGGCACGTAGTA,1.57
4,TGATAACCAGTA,-0.301
5,TGACCCCCGGTA,-0.184
6,TGACCCGCGGTA,0.505
7,TGACAAGAAGTA,-0.507
8,TGAACGTACGTA,-0.307
9,TCACACGTAGCA,2.4
10,TGAGCTGAAGTA,-0.814
11,TGAGATGCAGTA,-0.489
12,TGACCGGCCGTA,-0.507
13,TGACGGCGTGTA,2.34
14,TGAATCGCCGTA,-0.913
15,TGACGAGATGTA,-0.0441
16,TGAAGTTAGGTA,-0.789
17,TGAGCTGGAGTA,-0.718
18,TGAAGTTGAGTA,-0.854
19,TGACGCGCGGTA,1.62
20,TGACGAAAAGTA,-0.906
21,TGAGTCATCGTA,-0.561
22,TGAAAGCTGGTA,-0.815
23,TGAAGTATCGTA,-0.556
24,TGACGTGTGGTT,1.65
25,TGAGAACAGGTA,-0.504

row,Sequence,binding signal (log2 normalized fluorescence)
1,TGACTAACTGTA,-0.781
2,TGAACTGGCGTA,-0.86
3,TGAACCGGAGTA,-0.466
4,TGAATGGTTGTA,0.487
5,TGACCCGTGGTA,2.38
6,TGACATCTTGTA,0.0419
7,TGAGACGTGGTC,1.44
8,TTACACGTAGCA,1.46
9,TGAAGCGCTGTA,0.0579
10,TGAGCCAGAGTA,-1.02
11,TGATGGCTGGTA,0.013
12,TGAAGGGGCGTA,0.0876
13,TGACGCGAGGTA,1.3
14,TGCCAAGTGGTA,0.694
15,TGAGAAGACGTA,-0.51
16,TGATCACTGGTA,-0.372
17,TGAGAACCGGTA,-0.907
18,TGAATAGAGGTA,-0.905
19,TGAGACGACGTA,-0.705
20,TGGCAAGTGGTC,0.794
21,TGAAGGGGGGTA,1.76
22,TGAGCCAACGTA,-0.742
23,TGATTGGTCGTA,-0.853
24,TGACACGAGCTA,2.46
25,TGAGAGCGAGTA,-0.606

row,Sequence,binding signal (log2 normalized fluorescence)
1,TGACCATACGTA,0.577
2,TGATACTTTGTA,-0.964
3,TGAAACAACGTA,0.158
4,TGAACTCTAGTA,-0.97
5,TGACACGATGTA,2.21
6,TGACGCGTCGCA,0.257
7,TGACTAAGAGTA,-1.02
8,TGAGATATGGTA,-0.828
9,GAACATGTGGTA,3.2
10,TGATCCTGAGTA,-1.02
11,TGAAAGCAGGTA,-0.157
12,TGAGAGTTTGTA,-1.03
13,TGAAAGCCGGTA,-1.24
14,TGAGGGATGGTA,0.0855
15,TGACACGTGGAG,2.99
16,TGATATACCGTA,-0.669
17,ATTACTAGATGA,0.503
18,TGAGACTCGGTA,-0.816
19,TGACCCAAGGTA,-0.0673
20,TGACTATCAGTA,-0.801
21,TGACACAAGGGA,1.23
22,TGACTTGCTGTA,0.424
23,GGCCACGTAGTA,2.08
24,TGATTTTTGGTA,-1.29
25,TGACATGTGGTT,2.98

row,Sequence,binding signal (log2 normalized fluorescence)
1,TGCCAGGTGGTG,3.19
2,TGATCTAAGGTA,-0.764
3,TGATTAGTGGTA,-0.573
4,TGAGTTACAGTA,-0.754
5,TGATCATTCGTA,-0.551
6,TCACATGTGGTA,3.23
7,TGATTAGTAGTA,-1.09
8,TGATACCGCGTA,-0.369
9,TTTCACTTGGTA,-0.636
10,TGATAGCTGGTA,-1.18
11,TGAGATGCTGTA,-0.422
12,TGAGAAATTGTA,-1.27
13,TGAGTGCGCGTA,0.259
14,TGAAGGCCAGTA,-0.68
15,TGAACTTTGGTA,-0.987
16,TGCGACGTGGTA,2.27
17,TGATAGTGTGTA,0.414
18,TGATTCTAAGTA,-1.27
19,TGACGCACCGTA,0.636
20,TGATCGATAGTA,-1.05
21,TTACAGGTGTTA,2.02
22,TGACTACGAGTA,-0.00923
23,TGAGCTAGAGTA,-1.22
24,TGATACTTAGTA,-1.02
25,TGACAGGCAGTA,0.262

row,Sequence,binding signal (log2 normalized fluorescence)
1,CTTCACGTGGTA,3.1
2,TGACATGTAGTA,1.02
3,TGACCTATGGTA,-0.0465
4,TGACGTTTGGTA,-0.649
5,TGATGCGAAGTA,-0.344
6,TGAGTTGAGGTA,-0.631
7,TGAACGAGCGTA,-0.202
8,GTATACGTGGTA,1.62
9,TGATCGTGGGTA,0.751
10,GGACACGTTGTT,3.24
11,TGATTGACAGTA,-0.751
12,TGAGGCAGCGTA,-0.447
13,TGAACACATGTA,3.21
14,TGACTTGAAGTA,-0.602
15,TGATAGGCTGTA,-0.837
16,GAACACGTGGTA,3.34
17,TGACACGTTTTA,2.98
18,TGAAAGTAAGTA,-0.774
19,TGAAGCGCGGTA,0.738
20,TGAGAGCCAGTA,-0.917
21,TGACTCTCAGTA,-0.859
22,TGATCCCAGGTA,-0.83
23,TGACGACATGTA,0.964
24,TGACGTGCGGTA,1.29
25,TGACCGTCAGTA,-0.303

row,Sequence,binding signal (log2 normalized fluorescence)
1,TGACCGTCTGTA,-0.178
2,TGAAGTAAAGTA,-0.746
3,TGAATCATAGTA,-0.822
4,TGATTCGGAGTA,-0.92
5,TGAGCGGTTGTA,-0.742
6,TGAGGGCGTGTA,1.37
7,TGATCAACCGTA,-0.486
8,TGAACTAGCGTA,-0.848
9,TTAAACGTGTTA,2.7
10,TGATGGGTCGTA,-0.154
11,TGACCATCGGTA,-0.214
12,TGAAGAATAGTA,-1.12
13,TGAATCGTGGTA,1.18
14,TGATATACAGTA,-0.979
15,TGAGGGATCGTA,-0.869
16,TGATGGAGCGTA,-0.127
17,TGAGACAACGTA,-0.46
18,TGAGCATAAGTA,-0.0306
19,TGAAATATGGTA,0.0492
20,ACTTAGGGGGGT,2.23
21,TGACACGTGGGA,3.16
22,TGATAATACGTA,-0.575
23,TGAATCACTGTA,-0.285
24,TGACACGGGCTA,1.61
25,TGAAATGCAGTA,0.012

# — PMC5515408
